{
  "source": "the supplement of paper PMC4967469",
  "note": "A lower IC50 marks a more sensitive line; where the fit passes the top or lowest dose, that dose stands as a limit. AUC, from the same fit, is the share of area under the viability curve across the 256-fold dose range; values near 1 show little effect. Where the top dose is marked as inferred, it comes from the curve model; the source does not state it. Where an entry number is given, a second screen of the drug exists; the two often differ.",
  "data": [
    {"compound": "NC(=O)[C@@H](CCC(F)(F)F)N(Cc1ccc(-c2ncon2)cc1F)S(=O)(=O)c1ccc(Cl)cc1 [BMS-708163]", "assay": "Viability of human cancer cell lines after 72 h of drug (GDSC screen)", "conditions": "screen: GDSC drug entry 205; top dose inferred", "protocol": "(§1)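 Human cancer cell lines in 384-well plates, medium with 10% serum, drug for 72 h over a 256-fold dose range (nine 2-fold or five 4-fold steps up to the top dose). Adherent lines were fixed and stained with the nucleic acid dye Syto60, suspension lines read with resazurin; signal relative to control wells, capped at 0 and 100%. One two-parameter sigmoid per drug and line, fitted in a mixed model over all curves with the slope shared within a line.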", "units": {"IC50": "µM"}, "values": [
      {"cell line": "KOPN-8 (B-cell leukaemia, suspension, top dose 10.24 µM)", "AUC": 0.99, "IC50": "> 10.2"},
      {"cell line": "KOSC-2 (head and neck, adherent, top dose 10.24 µM)", "AUC": 0.961, "IC50": "> 10.2"},
      {"cell line": "KP-2 (pancreas, adherent, top dose 10.24 µM)", "AUC": 0.975, "IC50": "> 10.2"},
      {"cell line": "KP-3 (pancreas, adherent, top dose 10.24 µM)", "AUC": 0.984, "IC50": "> 10.2"},
      {"cell line": "KP-4 (pancreas, adherent, top dose 10.24 µM)", "AUC": 0.985, "IC50": "> 10.2"},
      {"cell line": "KP-N-YN (neuroblastoma, adherent, top dose 10.24 µM)", "AUC": 0.986, "IC50": "> 10.2"},
      {"cell line": "KP-N-YS (neuroblastoma, adherent, top dose 10.24 µM)", "AUC": 0.965, "IC50": "> 10.2"},
      {"cell line": "KS-1 (glioma, adherent, top dose 10.24 µM)", "AUC": 0.955, "IC50": "> 10.2"},
      {"cell line": "KU812 (chronic myeloid leukaemia, suspension, top dose 10.24 µM)", "AUC": 0.98, "IC50": "> 10.2"},
      {"cell line": "KU-19-19 (bladder, adherent, top dose 10.24 µM)", "AUC": 0.987, "IC50": "> 10.2"},
      {"cell line": "KURAMOCHI (ovary, adherent, top dose 10.24 µM)", "AUC": 0.966, "IC50": "> 10.2"},
      {"cell line": "KY821 (leukaemia, suspension, top dose 10.24 µM)", "AUC": 0.991, "IC50": "> 10.2"},
      {"cell line": "KYAE-1 (oesophagus, suspension, top dose 10.24 µM)", "AUC": 0.976, "IC50": "> 10.2"},
      {"cell line": "KYM-1 (rhabdomyosarcoma, adherent, top dose 10.24 µM)", "AUC": 0.99, "IC50": "> 10.2"},
      {"cell line": "KYSE-50 (oesophagus, adherent, top dose 10.24 µM)", "AUC": 0.967, "IC50": "> 10.2"},
      {"cell line": "KYSE-70 (oesophagus, adherent, top dose 10.24 µM)", "AUC": 0.987, "IC50": "> 10.2"},
      {"cell line": "KYSE-140 (oesophagus, adherent, top dose 10.24 µM)", "AUC": 0.972, "IC50": "> 10.2"},
      {"cell line": "KYSE-150 (oesophagus, adherent, top dose 10.24 µM)", "AUC": 0.989, "IC50": "> 10.2"},
      {"cell line": "KYSE-180 (oesophagus, adherent, top dose 10.24 µM)", "AUC": 0.986, "IC50": "> 10.2"},
      {"cell line": "KYSE-220 (oesophagus, adherent, top dose 10.24 µM)", "AUC": 0.965, "IC50": "> 10.2"},
      {"cell line": "KYSE-270 (oesophagus, adherent, top dose 10.24 µM)", "AUC": 0.988, "IC50": "> 10.2"},
      {"cell line": "KYSE-410 (oesophagus, adherent, top dose 10.24 µM)", "AUC": 0.985, "IC50": "> 10.2"},
      {"cell line": "KYSE-450 (oesophagus, adherent, top dose 10.24 µM)", "AUC": 0.977, "IC50": "> 10.2"},
      {"cell line": "KYSE-510 (oesophagus, adherent, top dose 10.24 µM)", "AUC": 0.992, "IC50": "> 10.2"},
      {"cell line": "KYSE-520 (oesophagus, adherent, top dose 10.24 µM)", "AUC": 0.982, "IC50": "> 10.2"},
      {"cell line": "L-363 (myeloma, suspension, top dose 10.24 µM)", "AUC": 0.982, "IC50": "> 10.2"},
      {"cell line": "L-428 (Hodgkin lymphoma, suspension, top dose 10.24 µM)", "AUC": 0.99, "IC50": "> 10.2"},
      {"cell line": "L-540 (Hodgkin lymphoma, suspension, top dose 10.24 µM)", "AUC": 0.99, "IC50": "> 10.2"},
      {"cell line": "L-1236 (Hodgkin lymphoma, suspension, top dose 10.24 µM)", "AUC": 0.992, "IC50": "> 10.2"},
      {"cell line": "LAMA-84 (chronic myeloid leukaemia, suspension, top dose 10.24 µM)", "AUC": 0.987, "IC50": "> 10.2"},
      {"cell line": "LAN-6 (neuroblastoma, adherent, top dose 10.24 µM)", "AUC": 0.982, "IC50": "> 10.2"},
      {"cell line": "LB373-MEL-D (melanoma, adherent, top dose 10.24 µM)", "AUC": 0.99, "IC50": "> 10.2"},
      {"cell line": "LB771-HNC (head and neck, adherent, top dose 10.24 µM)", "AUC": 0.977, "IC50": "> 10.2"},
      {"cell line": "LB831-BLC (bladder, adherent, top dose 10.24 µM)", "AUC": 0.987, "IC50": "> 10.2"},
      {"cell line": "LB996-RCC (kidney, adherent, top dose 10.24 µM)", "AUC": 0.983, "IC50": "> 10.2"},
      {"cell line": "LB1047-RCC (kidney, adherent, top dose 10.24 µM)", "AUC": 0.983, "IC50": "> 10.2"},
      {"cell line": "LB2241-RCC (kidney, adherent, top dose 10.24 µM)", "AUC": 0.983, "IC50": "> 10.2"},
      {"cell line": "LB2518-MEL (melanoma, adherent, top dose 10.24 µM)", "AUC": 0.986, "IC50": "> 10.2"},
      {"cell line": "LC4-1 (lymphoblastic leukaemia, suspension, top dose 10.24 µM)", "AUC": 0.976, "IC50": "> 10.2"},
      {"cell line": "LC-1-sq (lung squamous cell carcinoma, adherent, top dose 10.24 µM)", "AUC": 0.984, "IC50": "> 10.2"},
      {"cell line": "LC-2-ad (lung adenocarcinoma, adherent, top dose 10.24 µM)", "AUC": 0.985, "IC50": "> 10.2"},
      {"cell line": "LCLC-97TM1 (large cell lung carcinoma, adherent, top dose 10.24 µM)", "AUC": 0.908, "IC50": "> 10.2"},
      {"cell line": "LCLC-103H (large cell lung carcinoma, adherent, top dose 10.24 µM)", "AUC": 0.991, "IC50": "> 10.2"},
      {"cell line": "LK-2 (lung squamous cell carcinoma, adherent, top dose 10.24 µM)", "AUC": 0.989, "IC50": "> 10.2"},
      {"cell line": "LN-18 (glioma, adherent, top dose 10.24 µM)", "AUC": 0.994, "IC50": "> 10.2"},
      {"cell line": "LN-229 (glioma, adherent, top dose 10.24 µM)", "AUC": 0.988, "IC50": "> 10.2"},
      {"cell line": "LN-405 (glioma, adherent, top dose 10.24 µM)", "AUC": 0.984, "IC50": "> 10.2"},
      {"cell line": "LNCaP-Clone-FGC (prostate, adherent, top dose 10.24 µM)", "AUC": 0.979, "IC50": "> 10.2"},
      {"cell line": "LNZTA3WT4 (glioma, adherent, top dose 10.24 µM)", "AUC": 0.989, "IC50": "> 10.2"},
      {"cell line": "LOU-NH91 (lung squamous cell carcinoma, adherent, top dose 10.24 µM)", "AUC": 0.984, "IC50": "> 10.2"},
      {"cell line": "LOUCY (T-cell lymphoblastic leukaemia, suspension, top dose 2.56 µM)", "AUC": 0.987, "IC50": "> 2.56"},
      {"cell line": "LOXIMVI (melanoma, semi-adherent, top dose 10.24 µM)", "AUC": 0.99, "IC50": "> 10.2"},
      {"cell line": "LP-1 (myeloma, suspension, top dose 10.24 µM)", "AUC": 0.941, "IC50": "> 10.2"},
      {"cell line": "LS-123 (large intestine, adherent, top dose 10.24 µM)", "AUC": 0.965, "IC50": "> 10.2"},
      {"cell line": "LS-180 (large intestine, adherent, top dose 10.24 µM)", "AUC": 0.971, "IC50": "> 10.2"},
      {"cell line": "LS-411N (large intestine, adherent, top dose 2.56 µM)", "AUC": 0.981, "IC50": "> 2.56"},
      {"cell line": "LS-513 (large intestine, adherent, top dose 2.56 µM)", "AUC": 0.986, "IC50": "> 2.56"},
      {"cell line": "LS-1034 (large intestine, adherent, top dose 10.24 µM)", "AUC": 0.973, "IC50": "> 10.2"},
      {"cell line": "LU-65 (large cell lung carcinoma, suspension, top dose 10.24 µM)", "AUC": 0.985, "IC50": "> 10.2"},
      {"cell line": "LU-99A (large cell lung carcinoma, adherent, top dose 10.24 µM)", "AUC": 0.987, "IC50": "> 10.2"},
      {"cell line": "LU-134-A (small cell lung carcinoma, suspension, top dose 10.24 µM)", "AUC": 0.984, "IC50": "> 10.2"},
      {"cell line": "LU-135 (small cell lung carcinoma, suspension, top dose 10.24 µM)", "AUC": 0.989, "IC50": "> 10.2"},
      {"cell line": "LU-139 (small cell lung carcinoma, suspension, top dose 10.24 µM)", "AUC": 0.97, "IC50": "> 10.2"},
      {"cell line": "LU-165 (small cell lung carcinoma, suspension, top dose 10.24 µM)", "AUC": 0.988, "IC50": "> 10.2"},
      {"cell line": "LXF-289 (lung adenocarcinoma, adherent, top dose 10.24 µM)", "AUC": 0.987, "IC50": "> 10.2"},
      {"cell line": "LoVo (large intestine, adherent, top dose 10.24 µM)", "AUC": 0.987, "IC50": "> 10.2"},
      {"cell line": "M14 (melanoma, adherent, top dose 10.24 µM)", "AUC": 0.987, "IC50": "> 10.2"},
      {"cell line": "M059J (glioma, adherent, top dose 10.24 µM)", "AUC": 0.985, "IC50": "> 10.2"},
      {"cell line": "MC116 (B-cell lymphoma, suspension, top dose 10.24 µM)", "AUC": 0.999, "IC50": "> 10.2"},
      {"cell line": "MC-CAR (haematopoietic neoplasm, suspension, top dose 10.24 µM)", "AUC": 0.964, "IC50": "> 10.2"},
      {"cell line": "MC-IXC (neuroblastoma, adherent, top dose 10.24 µM)", "AUC": 0.996, "IC50": "> 10.2"},
      {"cell line": "MCF7 (breast, adherent, top dose 10.24 µM)", "AUC": 0.986, "IC50": "> 10.2"},
      {"cell line": "MDA-MB-157 (breast, adherent, top dose 10.24 µM)", "AUC": 0.988, "IC50": "> 10.2"},
      {"cell line": "MDA-MB-175-VII (breast, adherent, top dose 10.24 µM)", "AUC": 0.987, "IC50": "> 10.2"},
      {"cell line": "MDA-MB-231 (breast, adherent, top dose 10.24 µM)", "AUC": 0.972, "IC50": "> 10.2"}
    ]},
    {"compound": "NC(=O)[C@@H](CCC(F)(F)F)N(Cc1ccc(-c2ncon2)cc1F)S(=O)(=O)c1ccc(Cl)cc1 [BMS-708163]", "assay": "Viability of human cancer cell lines after 72 h of drug (GDSC screen)", "conditions": "top dose 5 µM; screen: GDSC drug entry 1072; top dose inferred", "protocol": "as §1", "units": {"IC50": "µM"}, "values": [
      {"cell line": "KYAE-1 (oesophagus, suspension)", "AUC": 0.981, "IC50": "> 5"},
      {"cell line": "M059J (glioma, adherent)", "AUC": 0.965, "IC50": "> 5"}
    ]}
  ]
}
